From the supplement of paper PMC11417369
± gives the standard deviation of the averaged measurements. Some of the results follow.

Test system: PfAP2-G AP2 domain (GST-tagged)
Assay: gcPBM binding intensity (ln(normalized median fluorescence intensity)); higher = stronger DNA binding
Procedure, shortened: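 Binding intensity is the highest Masliner-normalised natural-log median intensity over replicate spots in either probe orientation. To obtain it, GST-tagged P. falciparum DNA-binding domains made in E. coli were incubated for 1 h on an Agilent 4 × 180k array of primer-extended double-stranded 36-bp intergenic genomic probes plus negative controls. Detection used Alexa488 anti-GST antibody with scanning at 488 nm.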

| Sequence | gcPBM binding intensity (ln) |
| --- | --- |
| TATATGTTATATTTAACACACATATAAGGTACATAT [CACACA_site612] | 11.2 ± 0.85 |
| TTCTCATAATTAAATAGTACATATTTTAATAATCAC [XGTACX_site6116] | 11 ± 0.74 |
| TACATGAATATATAAAGAAAAAAAAAAAAACACACA [XGTACX_negctrl_site350] | 10.1 ± 0.16 |
| TATAAATTATATATTTGTACGTATATCACATATATA [XGTACX_site7053] | 11.3 ± 0.84 |
| TTAAAAAAAATTATTTGTACTTAAAAATTTTATATT [XGTACX_site8751] | 11.2 ± 0.86 |
| AGAAAAAAAAAACACACACACACACCGTCAATATAA [CACACA_site7895] | 9.945 ± 0.007 |
| TTTTTAAACCATGTTGTGCACATTTTTTTTGGATTT | 10.4 ± 0.23 |
| TGTTAAAGAGAAAGTACTACACATATTATGTGTTTT [XGTACX_site1435] | 11 ± 0.66 |
| TTTTATAAACAGAGGGGTACGGGAAAAAAAAAAAAA [XGTACX_site1480] | 11.1 ± 0.94 |
| AAAATTATATATTATAGTACATAAAATTTTGATATA [XGTACX_site994] | 10.9 ± 0.56 |
| TATTAAAAATGTTAAGTGCAAAAATAAAAATTGTGG [GTGCAC_site9854] | 10.2 ± 0.17 |
| TTAGTTATTATAATTTGTACACAAATGGTAAAGTAT [XGTACX_site2343] | 11.2 ± 0.71 |
| TTTGTACCGGCATTTTTTTTTTCTTTTTTTTTCCAA [XGTACX_negctrl_site323] | 10.9 ± 0.6 |
| AAAAAAAAAAAAATCTCACACATAAAGAGATTATGA [CACACA_site4408] | 9.615 ± 0.092 |
| TTGAAAGAAAATAAAATAAAATAAAATAAAATAAAA [CACACA_negctrl_site859] | 9.45 ± 0.014 |
| ATATATATGTATTTATGTACATATTATTTTTCTTAA [XGTACX_site8169] | 11.2 ± 0.72 |
| ACATATGAAAAATATGCATGCAAATATTATTTAACA [TGCATGCA_site802] | 9.73 ± 0.16 |
| TATGTATGTTAGTGTGCACACATAAATATTATATAT [CACACA_site9121] | 10.5 ± 0.36 |
| TTTTTAAAATTTTTAAAAATATTATGTTAAATATAT [CACACA_negctrl_site415] | 9.61 ± 0.085 |
| TTTTATTTCAATCCACAAGGGATAAAATAAAGTTTT [CACACA_negctrl_site699] | 9.795 ± 0.049 |
| GGATGTATTTATATGTGTATGTGTTTGGAAATATGT [XGTACX_negctrl_site99] | 10.11 ± 0.057 |
| AATAAATAAAAATATATATATATAATATACATGTGT [TGCATGCA_negctrl_site369] | 9.81 ± 0.11 |
| GATAATGAATGATGCACACTAAAAATATTCTACAAC [CACACA_site3622] | 10.185 ± 0.007 |

| Sequence | gcPBM binding intensity (ln) |
| --- | --- |
| CAAATTGGGAAATTTTGTACATATAATAAGGATACC [XGTACX_site7728] | 10.9 ± 0.39 |
| CCGTATATTTTATATAGTACTCATCATATATTTTTA [XGTACX_site5560] | 10.9 ± 0.56 |
| AAACTCTCTTATATTAAACACACATATATATATGTA [CACACA_site8865] | 9.96 ± 0.28 |
| GTTGGTAGGATGTATGGTACACGTAGTATTTTTCTT [XGTACX_site2] | 11.1 ± 0.62 |
| AATAAAAATAAAATTGTATATTTTAAATGAAAATAA [CACACA_negctrl_site898] | 9.51 ± 0.35 |
| AAAAACTTTTCAAGTAGTACCATATCTACAATAGTA [XGTACX_site8927] | 11.1 ± 0.76 |
| AAACAAAAGATATATACACACTAAACATAAAAAAAA [CACACA_site6161] | 9.885 ± 0.007 |
| CCTTTATTAAATAAATGTACATATTTTTGTGTTCTT [XGTACX_site2052] | 11.3 ± 0.72 |
| TATTTTACAATAACAATACACACTATAATATATATA [CACACA_site1391] | 9.925 ± 0.092 |
| TGTGTTCAGTATTGCACACACACAACCAAATAAAAA [CACACA_site379] | 10.4 ± 0.28 |
| ATTCACATATTATCTTTACACACTATATATAAGTTT [CACACA_site8901] | 9.98 ± 0.099 |
| ATAGATAAATTTACGGGTACTAAAATGGAATATGAA [XGTACX_site8637] | 11.3 ± 0.8 |
| AATATATATAAATAAACACACACAAATATAATAAAA [CACACA_site9176] | 10.2 ± 0.2 |
| GAAATGAACAAGTGGGTGCGTATTAATTACATATTA | 10.4 ± 0.18 |
| CATCAAAATGCTACATGTACATATATATAATATATT [XGTACX_site5207] | 11.2 ± 0.69 |
| CATTTTCATTTTAAGGTGCATTAATATTTATTTTAA [GTGCAC_site9437] | 10.2 ± 0.36 |
| TATATATATACATATTGTACATATTACATGCTATTA [XGTACX_site1184] | 10.9 ± 0.64 |
| TCATTTTAAATATGTGTGCACGTTATAATTTACACA | 10.4 ± 0.13 |
| TTTTTAATTTTTTTTAAACACACACCGTACATTCAA [CACACA_site7925] | 10.8 ± 0.61 |
| TACAACTTAATATGTACACACAAATATATATATATA [CACACA_site5138] | 11.4 ± 0.96 |
| ATCAAAATTGTCATTACACACCTTTATTTTTAGAAT [CACACA_site1813] | 9.965 ± 0.092 |
| ATTATTCTATATGAAACATGCATACATTTGTATTTT [TGCATGCA_site823] | 9.8 ± 0.11 |
| ATATATGTAAATGAATGTACATTATTTTATATATTA [XGTACX_site8460] | 10.8 ± 0.52 |

| Sequence | gcPBM binding intensity (ln) |
| --- | --- |
| GAAATACATTTTAAAAAATAAGTAATTATAAAATAA [TGCATGCA_negctrl_site303] | 9.57 ± 0.11 |
| GATACCTATAGACACACACACATACCTATATACATA [CACACA_site7586] | 10.2 ± 0.2 |
| ATTCATCCAATAATGTGAATTATCATGATAAACTTA [TGCATGCA_negctrl_site406] | 9.69 |
| TTTATAAATAAACACACACACATGTGAACATAAAAA [CACACA_site5110] | 10.4 ± 0.2 |
| ATATATTTATTATTAACATGCAATCATTATATATAA [TGCATGCA_site404] | 9.67 ± 0.014 |
| TTAATATGAGAATAATGTACAAGAAAATATTACATA [XGTACX_site6609] | 10.9 ± 0.51 |
| TTGGATTTTTCCTATGAACACACGGGGTTACAATTA [CACACA_site449] | 10.1 ± 0.14 |
| TCCAATAATTTATAAAAAAAAAAAGGGAAAATGTAT [TGCATGCA_negctrl_site492] | 9.62 ± 0.11 |
| AAAATAATAAAAAACTGTACGAATTAAAAATTAACA [XGTACX_site8454] | 11.1 ± 0.8 |
| AAACATTTTCATTTGACACACATCATATATTTATAT [CACACA_site1794] | 10.2 ± 0.12 |
| AATCTATCAAAGTGTACATGCAATAAAAAAAAAAAA [TGCATGCA_site103] | 11.2 ± 1.1 |
| AAAAAATTATTATGAACACACATTTATTATATTCAT [CACACA_site1566] | 9.805 ± 0.049 |
| TTCAAGATTTATTATACACACATATTAAAATATATA [CACACA_site4479] | 9.76 ± 0.11 |
| TATATATATAAATACAGTACATATATAATATTTTGA [XGTACX_site637] | 10.7 ± 0.51 |
| TAACTTAATTTTAATGCACACAATTTATATATATAT [CACACA_site6022] | 10.1 ± 0.18 |
| AAAAATATATATATATATATATATATATTATTTTTT [TGCATGCA_negctrl_site378] | 9.46 ± 0.11 |
| ATATGTACTATACGCACACACACTCACATATATATA [CACACA_site3239] | 11.4 ± 0.81 |
| AATTATATGAAATAAACACACATATGCAATATTGCA [CACACA_site6988] | 9.875 ± 0.035 |
| CTTTCATTTCTATCTACACACATATTTTTTCCAAGT [CACACA_site2972] | 10.18 ± 0.078 |
| TTAATGTACAGACACCCACACACAAACAAATATATA [CACACA_site8888] | 11 ± 0.62 |
| AAAAGAAAAAAAAGTACACACATGTATATTAAGCGT [CACACA_site5402] | 11.5 ± 0.83 |
| GCGTGCGTGTACTTAACACACATAATATGTATTTAT [CACACA_site1247] | 11.3 ± 0.99 |
| TTTTTTTTTCCCCCATGTACATAAATAAGTATATCT [XGTACX_site6965] | 11.5 ± 1 |

| Sequence | gcPBM binding intensity (ln) |
| --- | --- |
| ATTATATATATCAGGTGTACGTAAAAAAAATGGACG [XGTACX_site1028] | 11.9 ± 0.81 |
| TATAAAAATATATTTACACACTATAAATATCGAAAG [CACACA_site6896] | 9.96 ± 0.18 |
| TAATTTATAAATATAATATTTATGTATATGATGTTT [CACACA_negctrl_site464] | 9.795 ± 0.078 |
| GAGGTCTTTTTTAATGTGCACATATATATATATATA | 10.7 ± 0.51 |
| TTTTTTTATTAATGTAGTACAATATAATGTTATATT [XGTACX_site2295] | 11.6 ± 0.88 |
| TTTTTTTTTTTTTTTACACACTCCAATAAAAAAGAA [CACACA_site2119] | 10.1 ± 0.51 |
| TTTTTTCTCAAAAAAAAAACCTATGGTTATTAAGAT [XGTACX_negctrl_site534] | 9.9 ± 0.24 |
| GTATATATATATAAAAGTACATGTTATGAAAAAAAA [XGTACX_site5410] | 11.3 ± 0.81 |
| TATATATAGAAACACACACACATATATATATATATA [CACACA_site773] | 10.1 ± 0.22 |
| ATTAAGTATATTTCTGCACACAAAAAAAAAAACCAA [CACACA_site9342] | 10.4 ± 0.38 |
| TTATTTTTCAATGAAAAGGATTATATATATATATAT [CACACA_negctrl_site757] | 10.2 ± 0.7 |
| TTATAATTCTATTATCTGTTCTTTTTATATTTTTTT [CACACA_negctrl_site855] | 9.64 ± 0.14 |
| TTCTAAACACATTGACAAATTAATATATTACAGCAA [GTGCAC_negctrl_site121] | 9.93 ± 0.12 |
| AAAATTTATAGTATGGTGCATAAAAATATATATATA | 10.1 ± 0.36 |
| TATAAGAAAAATAACACACACATAAACATAAATACA [CACACA_site5536] | 10.19 ± 0.042 |
| AAAAAAAAAAAAAAATGTACATAAAAATGATATAAT [XGTACX_site4096] | 11.2 ± 0.49 |
| TAAGTTATATGTACTACACACGTACACAAAATAAGA [CACACA_site9237] | 11.8 ± 1 |
| ATCCACAAATTAACAAGTACATATATATATATATAT [XGTACX_site1267] | 11.3 ± 0.94 |
| ACAATATATAAAATATGTACATAATATATATAATGA [XGTACX_site8731] | 11.2 ± 0.65 |
| CCTAATTTTATTAGGGTGCATTTTTAGTTAAATATA | 10.2 ± 0.37 |
